Viability of KB3-1 and Nalm-6 cells after 48 h of drug alone (CellTiter-Glo), 11 doses over about 4.5 log units. % of DMSO wells, lower = more cell loss; AC50 from the fitted curve, lower = more potent. No active / inactive call. Nalm-6 was screened in two runs. AC50 is listed only for well-fitted inhibitory curves. KB3-1 is a HeLa-derived carcinoma line, Nalm-6 a B-cell precursor leukaemia line.
What was measured:
KB3-1 [1] = assay: viability (% of DMSO control); higher = more viable cells
Procedure: (§1)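 Eleven-dose screen of the NCATS MIPE 3 library on cells without co-treatment; CellTiter-Glo after 48 h, as % of DMSO wells.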

Nalm-6 [2] = assay: as above
Procedure: as §1

KB3-1 [3] = assay: log AC50 of viability decrease (48 h) (log10 M); higher = less potent
Procedure: (§2)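 Eleven-dose screen of the NCATS MIPE 3 library on cells without co-treatment; CellTiter-Glo after 48 h. AC50 from the curve fit; only inhibitory curves of the better fit classes are listed.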

Nalm-6 [4] = assay: as above
Procedure: as §2

## CCN(CC)CCOC1=CC=C(NC2=NC=C3\C=C(/C(=O)N(C)C3=N2)C4=C(Cl)C=CC=C4Cl)C=C1
KB3-1 [1]; 0.00078 µM
  viability: 106%
KB3-1 [1]; 0.00234 µM
  viability: 104%
KB3-1 [1]; 0.00702 µM
  viability: 104%
KB3-1 [1]; 0.0211 µM
  viability: 93.5%
KB3-1 [1]; 0.0632 µM
  viability: 88%
KB3-1 [1]; 0.19 µM
  viability: 90.7%
KB3-1 [1]; 0.569 µM
  viability: 18.1%
KB3-1 [1]; 1.71 µM
  viability: 7.37%
KB3-1 [1]; 5.12 µM
  viability: 7.48%
KB3-1 [1]; 15.4 µM
  viability: 6.75%
KB3-1 [1]; 46.1 µM
  viability: 0.405%
Nalm-6 [2]; run: 1, 0.00078 µM
  viability: 112%
Nalm-6 [2]; run: 1, 0.00234 µM
  viability: 117%
Nalm-6 [2]; run: 1, 0.00702 µM
  viability: 109%
Nalm-6 [2]; run: 1, 0.0211 µM
  viability: 95.8%
Nalm-6 [2]; run: 1, 0.0632 µM
  viability: 95.8%
Nalm-6 [2]; run: 1, 0.19 µM
  viability: 75%
Nalm-6 [2]; run: 1, 0.569 µM
  viability: 73.6%
Nalm-6 [2]; run: 1, 1.71 µM
  viability: 30.9%
Nalm-6 [2]; run: 1, 5.12 µM
  viability: 13.6%
Nalm-6 [2]; run: 1, 15.4 µM
  viability: 4.75%
Nalm-6 [2]; run: 1, 46.1 µM
  viability: 0.234%
Nalm-6 [2]; run: 2, 0.00078 µM
  viability: 108%
Nalm-6 [2]; run: 2, 0.00234 µM
  viability: 116%
Nalm-6 [2]; run: 2, 0.00702 µM
  viability: 108%
Nalm-6 [2]; run: 2, 0.0211 µM
  viability: 107%
Nalm-6 [2]; run: 2, 0.0632 µM
  viability: 91.9%
Nalm-6 [2]; run: 2, 0.19 µM
  viability: 83.5%
Nalm-6 [2]; run: 2, 0.569 µM
  viability: 77.6%
Nalm-6 [2]; run: 2, 1.71 µM
  viability: 40.7%
Nalm-6 [2]; run: 2, 5.12 µM
  viability: 13.1%
Nalm-6 [2]; run: 2, 15.4 µM
  viability: 4.63%
Nalm-6 [2]; run: 2, 46.1 µM
  viability: 0.268%
KB3-1 [3]
  log AC50 of viability decrease: -6.48
Nalm-6 [4]; run: 1
  log AC50 of viability decrease: -6.08
Nalm-6 [4]; run: 2
  log AC50 of viability decrease: -5.93

## CCn1c(-c2nonc2N)nc2cnc(Oc3cccc(NC(=O)c4ccc(OCCN5CCOCC5)cc4)c3)cc21
KB3-1 [1]; 0.00078 µM
  viability: 93.7%
KB3-1 [1]; 0.00234 µM
  viability: 91.3%
KB3-1 [1]; 0.00702 µM
  viability: 87.8%
KB3-1 [1]; 0.0211 µM
  viability: 92.5%
KB3-1 [1]; 0.0632 µM
  viability: 94.2%
KB3-1 [1]; 0.19 µM
  viability: 88.3%
KB3-1 [1]; 0.569 µM
  viability: 84.4%
KB3-1 [1]; 1.71 µM
  viability: 76.5%
KB3-1 [1]; 5.12 µM
  viability: 69%
KB3-1 [1]; 15.4 µM
  viability: 62.7%
KB3-1 [1]; 46.1 µM
  viability: 48.9%
Nalm-6 [2]; run: 1, 0.00078 µM
  viability: 91.9%
Nalm-6 [2]; run: 1, 0.00234 µM
  viability: 101%
Nalm-6 [2]; run: 1, 0.00702 µM
  viability: 90.5%
Nalm-6 [2]; run: 1, 0.0211 µM
  viability: 84.4%
Nalm-6 [2]; run: 1, 0.0632 µM
  viability: 84.9%
Nalm-6 [2]; run: 1, 0.19 µM
  viability: 75.5%
Nalm-6 [2]; run: 1, 0.569 µM
  viability: 75%
Nalm-6 [2]; run: 1, 1.71 µM
  viability: 56.8%
Nalm-6 [2]; run: 1, 5.12 µM
  viability: 62.3%
Nalm-6 [2]; run: 1, 15.4 µM
  viability: 54.9%
Nalm-6 [2]; run: 1, 46.1 µM
  viability: 4.15%
Nalm-6 [2]; run: 2, 0.00078 µM
  viability: 99%
Nalm-6 [2]; run: 2, 0.00234 µM
  viability: 99.4%
Nalm-6 [2]; run: 2, 0.00702 µM
  viability: 101%
Nalm-6 [2]; run: 2, 0.0211 µM
  viability: 102%
Nalm-6 [2]; run: 2, 0.0632 µM
  viability: 91.8%
Nalm-6 [2]; run: 2, 0.19 µM
  viability: 93.2%
Nalm-6 [2]; run: 2, 0.569 µM
  viability: 82.7%
Nalm-6 [2]; run: 2, 1.71 µM
  viability: 78.8%
Nalm-6 [2]; run: 2, 5.12 µM
  viability: 83.6%
Nalm-6 [2]; run: 2, 15.4 µM
  viability: 54.8%
Nalm-6 [2]; run: 2, 46.1 µM
  viability: 2.74%
KB3-1 [3]
  log AC50 of viability decrease: -5.13
Nalm-6 [4]; run: 1
  log AC50 of viability decrease: -4.73
Nalm-6 [4]; run: 2
  log AC50 of viability decrease: -4.73

## CN(C)c1ccc(Nc2nc(N)n(C(=O)c3c(F)cccc3F)n2)cc1
KB3-1 [1]; 0.00078 µM
  viability: 99.7%
KB3-1 [1]; 0.00234 µM
  viability: 96.4%
KB3-1 [1]; 0.00702 µM
  viability: 101%
KB3-1 [1]; 0.0211 µM
  viability: 98.2%
KB3-1 [1]; 0.0632 µM
  viability: 101%
KB3-1 [1]; 0.19 µM
  viability: 99.9%
KB3-1 [1]; 0.569 µM
  viability: 91.4%
KB3-1 [1]; 1.71 µM
  viability: 84.4%
KB3-1 [1]; 5.12 µM
  viability: 83.2%
KB3-1 [1]; 15.4 µM
  viability: 87.7%
KB3-1 [1]; 46.1 µM
  viability: 59.6%
Nalm-6 [2]; run: 1, 0.00078 µM
  viability: 105%
Nalm-6 [2]; run: 1, 0.00234 µM
  viability: 118%
Nalm-6 [2]; run: 1, 0.00702 µM
  viability: 122%
Nalm-6 [2]; run: 1, 0.0211 µM
  viability: 115%
Nalm-6 [2]; run: 1, 0.0632 µM
  viability: 113%
Nalm-6 [2]; run: 1, 0.19 µM
  viability: 112%
Nalm-6 [2]; run: 1, 0.569 µM
  viability: 88.9%
Nalm-6 [2]; run: 1, 1.71 µM
  viability: 69.6%
Nalm-6 [2]; run: 1, 5.12 µM
  viability: 79.7%
Nalm-6 [2]; run: 1, 15.4 µM
  viability: 75.3%
Nalm-6 [2]; run: 1, 46.1 µM
  viability: 20.6%
Nalm-6 [2]; run: 2, 0.00078 µM
  viability: 113%
Nalm-6 [2]; run: 2, 0.00234 µM
  viability: 109%
Nalm-6 [2]; run: 2, 0.00702 µM
  viability: 110%
Nalm-6 [2]; run: 2, 0.0211 µM
  viability: 111%
Nalm-6 [2]; run: 2, 0.0632 µM
  viability: 105%
Nalm-6 [2]; run: 2, 0.19 µM
  viability: 106%
Nalm-6 [2]; run: 2, 0.569 µM
  viability: 96.4%
Nalm-6 [2]; run: 2, 1.71 µM
  viability: 83.9%
Nalm-6 [2]; run: 2, 5.12 µM
  viability: 88.4%
Nalm-6 [2]; run: 2, 15.4 µM
  viability: 78.9%
Nalm-6 [2]; run: 2, 46.1 µM
  viability: 1.84%
KB3-1 [3]
  log AC50 of viability decrease: -4.73
Nalm-6 [4]; run: 1
  log AC50 of viability decrease: -4.83
Nalm-6 [4]; run: 2
  log AC50 of viability decrease: -4.63

## COc1cc2nc(N3CCCN(C)CC3)nc(NC3CCN(Cc4ccccc4)CC3)c2cc1OC
KB3-1 [1]; 0.00078 µM
  viability: 99.1%
KB3-1 [1]; 0.00234 µM
  viability: 103%
KB3-1 [1]; 0.00702 µM
  viability: 100%
KB3-1 [1]; 0.0211 µM
  viability: 99.7%
KB3-1 [1]; 0.0632 µM
  viability: 101%
KB3-1 [1]; 0.19 µM
  viability: 108%
KB3-1 [1]; 0.569 µM
  viability: 103%
KB3-1 [1]; 1.71 µM
  viability: 101%
KB3-1 [1]; 5.12 µM
  viability: 84.7%
KB3-1 [1]; 15.4 µM
  viability: 38.4%
KB3-1 [1]; 46.1 µM
  viability: 2.61%
Nalm-6 [2]; run: 1, 0.00078 µM
  viability: 108%
Nalm-6 [2]; run: 1, 0.00234 µM
  viability: 101%
Nalm-6 [2]; run: 1, 0.00702 µM
  viability: 101%
Nalm-6 [2]; run: 1, 0.0211 µM
  viability: 114%
Nalm-6 [2]; run: 1, 0.0632 µM
  viability: 103%
Nalm-6 [2]; run: 1, 0.19 µM
  viability: 95.5%
Nalm-6 [2]; run: 1, 0.569 µM
  viability: 92.5%
Nalm-6 [2]; run: 1, 1.71 µM
  viability: 65.3%
Nalm-6 [2]; run: 1, 5.12 µM
  viability: 11.9%
Nalm-6 [2]; run: 1, 15.4 µM
  viability: 6.56%
Nalm-6 [2]; run: 1, 46.1 µM
  viability: 1.34%
Nalm-6 [2]; run: 2, 0.00078 µM
  viability: 101%
Nalm-6 [2]; run: 2, 0.00234 µM
  viability: 96.2%
Nalm-6 [2]; run: 2, 0.00702 µM
  viability: 102%
Nalm-6 [2]; run: 2, 0.0211 µM
  viability: 99.8%
Nalm-6 [2]; run: 2, 0.0632 µM
  viability: 96.6%
Nalm-6 [2]; run: 2, 0.19 µM
  viability: 89.7%
Nalm-6 [2]; run: 2, 0.569 µM
  viability: 84.3%
Nalm-6 [2]; run: 2, 1.71 µM
  viability: 62.2%
Nalm-6 [2]; run: 2, 5.12 µM
  viability: 6.97%
Nalm-6 [2]; run: 2, 15.4 µM
  viability: 6.14%
Nalm-6 [2]; run: 2, 46.1 µM
  viability: 1.16%
KB3-1 [3]
  log AC50 of viability decrease: -4.88
Nalm-6 [4]; run: 1
  log AC50 of viability decrease: -5.63
Nalm-6 [4]; run: 2
  log AC50 of viability decrease: -5.68

## COc1ccc(OC)c(-c2nnc3ccc(-c4ccc(OC)c(O[C@@H]5CCOC5)c4)nn23)c1
KB3-1 [1]; 0.00078 µM
  viability: 102%
KB3-1 [1]; 0.00234 µM
  viability: 107%
KB3-1 [1]; 0.00702 µM
  viability: 106%
KB3-1 [1]; 0.0211 µM
  viability: 108%
KB3-1 [1]; 0.0632 µM
  viability: 112%
KB3-1 [1]; 0.19 µM
  viability: 107%
KB3-1 [1]; 0.569 µM
  viability: 102%
KB3-1 [1]; 1.71 µM
  viability: 78.4%
KB3-1 [1]; 5.12 µM
  viability: 70.8%
KB3-1 [1]; 15.4 µM
  viability: 39.9%
KB3-1 [1]; 46.1 µM
  viability: 19%
Nalm-6 [2]; run: 1, 0.00078 µM
  viability: 108%
Nalm-6 [2]; run: 1, 0.00234 µM
  viability: 117%
Nalm-6 [2]; run: 1, 0.00702 µM
  viability: 107%
Nalm-6 [2]; run: 1, 0.0211 µM
  viability: 118%
Nalm-6 [2]; run: 1, 0.0632 µM
  viability: 108%
Nalm-6 [2]; run: 1, 0.19 µM
  viability: 105%
Nalm-6 [2]; run: 1, 0.569 µM
  viability: 106%
Nalm-6 [2]; run: 1, 1.71 µM
  viability: 84.6%
Nalm-6 [2]; run: 1, 5.12 µM
  viability: 81.7%
Nalm-6 [2]; run: 1, 15.4 µM
  viability: 28.1%
Nalm-6 [2]; run: 1, 46.1 µM
  viability: 12.3%
Nalm-6 [2]; run: 2, 0.00078 µM
  viability: 99.4%
Nalm-6 [2]; run: 2, 0.00234 µM
  viability: 99%
Nalm-6 [2]; run: 2, 0.00702 µM
  viability: 101%
Nalm-6 [2]; run: 2, 0.0211 µM
  viability: 104%
Nalm-6 [2]; run: 2, 0.0632 µM
  viability: 96.3%
Nalm-6 [2]; run: 2, 0.19 µM
  viability: 101%
Nalm-6 [2]; run: 2, 0.569 µM
  viability: 98.6%
Nalm-6 [2]; run: 2, 1.71 µM
  viability: 69.3%
Nalm-6 [2]; run: 2, 5.12 µM
  viability: 68.4%
Nalm-6 [2]; run: 2, 15.4 µM
  viability: 21%
Nalm-6 [2]; run: 2, 46.1 µM
  viability: 6.69%
KB3-1 [3]
  log AC50 of viability decrease: -5.08
Nalm-6 [4]; run: 1
  log AC50 of viability decrease: -4.98
Nalm-6 [4]; run: 2
  log AC50 of viability decrease: -5.08

Source: the supplement of paper PMC4996465
